# Source: PMC4336329 (PLoS ONE, 2015)
# The whole screen tested about 310,000 compounds, of which about 14,000 (4.5%) showed an effect of 50% or more. The effect is printed as a negative number. Some of the results follow.
# Target: human ether-à-go-go-related gene (hERG) potassium channel (human, UniProt Q12809)
# Experiment: primary screen, population patch clamp on CHO cells stably expressing hERG
# 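Note: peak tail current of the secondary pulse compared with the same well before compound.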
# Sequence of human ether-à-go-go-related gene (hERG) potassium channel (Q12809 whole entry, looked up): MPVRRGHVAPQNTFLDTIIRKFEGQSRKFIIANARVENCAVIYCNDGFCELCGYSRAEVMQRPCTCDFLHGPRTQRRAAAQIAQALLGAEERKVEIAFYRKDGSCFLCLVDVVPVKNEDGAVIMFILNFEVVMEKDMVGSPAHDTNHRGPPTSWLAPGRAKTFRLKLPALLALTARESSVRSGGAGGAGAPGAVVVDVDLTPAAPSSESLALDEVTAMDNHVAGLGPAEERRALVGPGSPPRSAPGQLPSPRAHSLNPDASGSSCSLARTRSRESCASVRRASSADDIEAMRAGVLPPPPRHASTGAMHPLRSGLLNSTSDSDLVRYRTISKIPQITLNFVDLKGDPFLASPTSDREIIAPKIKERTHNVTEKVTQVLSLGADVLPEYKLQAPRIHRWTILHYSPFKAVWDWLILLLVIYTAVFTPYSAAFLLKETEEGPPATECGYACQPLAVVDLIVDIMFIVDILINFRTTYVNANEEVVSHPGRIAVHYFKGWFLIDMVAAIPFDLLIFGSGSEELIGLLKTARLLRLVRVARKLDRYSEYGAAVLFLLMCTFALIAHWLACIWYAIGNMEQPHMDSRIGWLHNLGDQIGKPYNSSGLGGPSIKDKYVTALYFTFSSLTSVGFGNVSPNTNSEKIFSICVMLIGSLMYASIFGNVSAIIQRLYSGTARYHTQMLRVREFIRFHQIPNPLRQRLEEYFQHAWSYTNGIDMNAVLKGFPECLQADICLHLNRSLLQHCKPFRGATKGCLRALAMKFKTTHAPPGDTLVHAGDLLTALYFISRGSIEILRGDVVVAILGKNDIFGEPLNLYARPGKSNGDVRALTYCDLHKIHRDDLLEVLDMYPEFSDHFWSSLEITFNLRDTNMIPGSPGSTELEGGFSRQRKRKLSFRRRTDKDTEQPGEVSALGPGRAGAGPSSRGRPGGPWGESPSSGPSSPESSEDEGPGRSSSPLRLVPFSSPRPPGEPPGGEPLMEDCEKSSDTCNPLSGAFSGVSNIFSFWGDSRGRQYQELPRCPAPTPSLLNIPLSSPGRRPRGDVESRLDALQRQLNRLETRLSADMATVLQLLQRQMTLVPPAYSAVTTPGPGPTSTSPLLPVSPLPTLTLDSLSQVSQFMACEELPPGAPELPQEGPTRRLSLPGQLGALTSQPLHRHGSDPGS
row,Structure (SMILES),"hERG current change (%, negative = inhibition) at 10uM"
1,O=c1c2c(nc3nc(NCc4cccc(Cl)c4)[nH]n13)CCC2,1.8%
2,C=CCNC(=S)NC1CC(C)(C)NC(C)(C)C1,10.3%
3,CC(=O)Nc1ccc(S(=O)(=O)N2CCc3cc4c(cc3C2C)OCCCO4)cc1 (stereo not drawn),-5.91%
4,NC(=O)c1ccc2nc(-c3ccccc3)c(-c3ccccc3)nc2c1,2.96%
5,C=CCn1c(SCC(=O)NC(=O)NCCC)nnc1C1CCCCC1,8.69%
6,CCN1CCN(C(=O)c2cc3c(OC)c(OC)c(OC)cc3[nH]2)CC1,34.6%
7,COc1cccc(OCc2nnc3n2N=C(c2ccccc2)C(CC(=O)O)S3)c1 (stereo not drawn),16.7%
8,Cc1cccc(-n2ncc3c(NCc4ccccn4)ncnc32)c1,-8.88%
9,COc1ccc(C(=O)COC(=O)C(C(C)C)N2C(=O)C3C4C=CC(C4)C3C2=O)cc1 (stereo not drawn),-7.3%
10,O=C(COc1cccc(Cl)c1)Nc1ccc2c(c1)CCC2,-3.73%
11,Cc1cc(C)c(S(=O)(=O)N(C2=NCCS2)S(=O)(=O)c2c(C)cc(C)cc2C)c(C)c1,1.88%
12,O=C(c1cc2cc(Cl)ccc2oc1=O)N1CCCCCCC1,16.6%
13,O=C(O)CCc1ccc(S(=O)(=O)Nc2ccc(OCc3ccccc3)cc2)cc1,7.19%
14,Cc1cc(OCC(=O)Nn2cnnc2)ccc1Br,1.74%
15,O=C1COc2cc(S(=O)(=O)CCC(=O)N3CCCCC3)c(Cl)cc2N1,-34.9%
16,N#Cc1ccc(C(=O)OCC(=O)N2CCOCC2)cc1,14.3%
17,CC(CCc1ccccc1)NC(=O)CCNS(=O)(=O)c1ccccc1C(F)(F)F (stereo not drawn),-12.4%
18,FC(F)(F)c1nnc2c(Sc3ccccc3)nc3ccccc3n12,4.21%
19,O=C(CN1CCN(c2ccccc2F)CC1)c1c[nH]c2ccccc12,6.29%
20,O=C1c2ccccc2C(=O)N1CN(C(=O)COc1ccccc1)c1ccc(F)cc1,-9.38%
21,COC(=O)c1sccc1NS(=O)(=O)c1ccc(OC)cc1,-15.1%
22,C1=CN2CCC1C(c1ccccc1)C2.Cl (stereo not drawn),-0.894%

row,Structure (SMILES),"hERG current change (%, negative = inhibition) at 10uM"
1,Cc1cccc(CCN(C(=O)c2csnn2)C(C(=O)NC2CCCC2)c2ccco2)c1 (stereo not drawn),-37.1%
2,O=C(CSc1nnc(C2CC2)n1Cc1ccco1)NCC(F)(F)F,13.6%
3,CCC(COC(=O)Nc1ccccc1)NC(=O)OC(C)C (stereo not drawn),9.06%
4,CCCCCc1cc(=O)oc2c(C(CCN3CCN(c4ccccc4)CC3)c3ccc(N(C)C)cc3)c(OC)cc(OC)c12 (stereo not drawn),5.51%
5,O=C(c1cc(COc2ccc(F)cc2F)on1)N1CCN(C(=O)c2ccco2)CC1,-57.3%
6,C=C1CCN([C@@H](CC(C)C)C(=O)NCc2ccc(Cl)cc2)S(=O)(=O)c2ccccc21,25.3%
7,Cc1cc2cc(C(=O)N3CCc4c([nH]c5ccccc45)C3c3ccccn3)ccc2o1 (stereo not drawn),9.41%
8,C/C(=N\Nc1cc(C(F)(F)F)ccc1Cl)c1ccccc1O,25.3%
9,COc1ccc(C#Cc2ccc3c(c2)c(=O)c2ccccc2n3C)cc1,15.2%
10,CCC(=O)OCc1c(C(F)(F)F)nn(C)c1Sc1ccc(Cl)cc1,-4.76%
11,Cc1ccc(S(=O)(=O)CC(=O)Nc2cccc(C)n2)cc1,6.48%
12,COc1ccc(OCCNS(=O)(=O)Cc2ccccc2)cc1,0.161%
13,CCNC(=O)NC(=O)C(C)OC(=O)CCCc1nc2ccccc2s1 (stereo not drawn),10.8%
14,Cc1ccc(C(C)C)cc1OCCN1CCCC1,-23.3%
15,CC(C)CNC(=O)C(=O)NCCCN1CCOCC1,-61.6%
16,COc1ccc(SCc2noc(C(=O)NC(C)C)c2C(=O)O)cc1,3%
17,COc1ccc2c(c1OC)C(=O)OC2Nc1nc(-c2cc3ccccc3oc2=O)cs1 (stereo not drawn),-8.35%
18,Cc1cccc(C2Nc3ccccc3C(=O)N2c2ccc(F)cc2)n1 (stereo not drawn),-12.9%
19,O=C(c1ccc(OC2CCN(Cc3cccc(OCCO)c3)CC2)cc1)N1CCCC1,-2.15%
20,CCOC(=O)c1ccc(-c2c(-c3ccccc3OC)sc3cc4c(cc23)OCO4)cc1F,12.5%
21,CCOc1ccc(NC(=O)NCC2CCN(Cc3ccc(F)cc3)CC2)cc1,-76.4%
22,Cn1c(CN2CCN(C(=O)c3ccc(F)cc3)CC2)nc2cc([N+](=O)[O-])ccc21,-67.5%

row,Structure (SMILES),"hERG current change (%, negative = inhibition) at 10uM"
1,O=C(N/N=C/c1ccsc1)c1ccccn1,13.5%
2,COc1ccc(NS(=O)(=O)c2ccc(NC(=O)C(CCSC)NC(N)=O)cc2)cc1 (stereo not drawn),12.7%
3,CCN(CC)CCCNC(=O)c1ccc(C)c(NC(=O)C2=C(C)OCCS2)c1,5.46%
4,Cc1ccc(NC(=S)NC(=O)c2ccc(-c3ccc(Cl)cc3)o2)c(O)c1,25.2%
5,Cc1ccccc1N/C(SCc1ccc(Cl)cc1)=C(/C#N)C(=O)NCc1ccco1,5.06%
6,COc1ccc2[nH]c(=O)c(CN(CCN3CCCC3)C(=O)Nc3ccccc3Cl)cc2c1,-47.6%
7,COc1ccc(O)c(C(=O)/C=C/c2cc3ccccc3o2)c1,7.22%
8,COc1ccc(CCNc2nc(-c3cccnc3)nc3ccccc23)cc1OC,-1.54%
9,COc1ccc(CN2CCC(Oc3ccc(C(=O)N4CCCC4)cc3)CC2)c(F)c1,-51.4%
10,CNC(=O)c1cc2c(s1)-c1ccccc1CC2,8.32%
11,Cc1cccc(NC(=O)C(C)Oc2ccccc2C)n1 (stereo not drawn),1.17%
12,COc1ccc(/C=N/Nc2cc(C)nc(-n3nc(C)cc3C)n2)c(OC)c1,8.42%
13,O=S(=O)(Nc1ccc(N2CCOCC2)cc1)c1c(F)cc(F)cc1Br,7.75%
14,COc1cc(OC)c(-c2nnc3n(CCc4ccccc4)c(=O)c4ccccc4n23)cc1OC,-5.63%
15,COc1ccc(Cc2n[nH]c(=S)n2N)cc1OC,15.9%
16,CCc1ccc(OCC(=O)NC(=S)Nc2ccc(Br)c(C)n2)cc1,14.6%
17,O=C(CSc1ccc(-c2cccnc2)nn1)Nc1ccccc1F,-38.6%
18,Cc1ccc(S(=O)(=O)N(CC(=O)N=Nc2c(O)[nH]c3ccccc23)c2cccc(C)c2)cc1,-10.7%
19,CCC(=O)Nc1ccccc1N1CCN(c2ccc(F)cc2)CC1,19.9%
20,CC1CC(C)CN(C2CCN(Cc3cccnc3)CC2)C1.O=C(O)C(=O)O (stereo not drawn),7.94%
21,Cc1cc(C(=O)COC(=O)CCc2nc3ccccc3c(=O)[nH]2)c(C)n1CC1CCCO1 (stereo not drawn),30%
22,CC(=O)Nc1ccc(Cc2ccc3[nH]c(=O)cc(C)c3c2)cc1,9.5%

row,Structure (SMILES),"hERG current change (%, negative = inhibition) at 10uM"
1,Cc1ccc(S(=O)(=O)N(CC(O)CN2CCCCC2)c2ccccc2)cc1.Cl (stereo not drawn),-67.9%
2,O=C(COC(=O)CCOc1ccccc1)NCCc1ccccc1,12%
3,Cc1cc(-c2nn(C)c(=O)c3ccccc23)ccc1CNC(=O)NC1CCCCC1,-31.4%
4,O=c1nc(NC2CCCC2)ccn1Cc1cccc(Br)c1,-33.9%
5,C=CCn1c(CSc2ccccc2[N+](=O)[O-])n[nH]c1=S,22%
6,COc1ccc(Cl)cc1NC(=S)NC1CCCC1,11.4%
7,CCOC(=O)c1[nH]c(C)c(/C(O)=C2\C(=O)C(=O)N(CCCN3CCOCC3)C2c2cccs2)c1C (stereo not drawn),-2.66%
8,CCc1nn(C(C)C(=O)N2CCN(Cc3ccccc3)CC2)c(=O)c2cc3occc3n12 (stereo not drawn),-20.8%
9,CCOC(=O)C1(CCc2ccccc2)CCN(C(=O)C(C)n2cncn2)CC1 (stereo not drawn),-14.3%
10,Cc1cc(C)n(CCNC(=O)c2cc(COc3c(F)cccc3F)on2)n1,8.35%
11,Cc1ccc(C(=O)OCc2cn(-c3ccccc3)nn2)cc1,-7.92%
12,Cc1cccc(Cn2c(N(C)Cc3ccccc3)nc3c2c(=O)[nH]c(=O)n3C)c1,-9.99%
13,CC1CCCCC12NC(=O)N(CC(=O)N1CCN(S(=O)(=O)/C=C/c3ccccc3)CC1)C2=O (stereo not drawn),-8.17%
14,COC(=O)C(C)Oc1cc(C)ccc1COc1ccc(-n2nc(C)n(C(F)F)c2=O)cc1 (stereo not drawn),-8.93%
15,COc1ccc(NC(=O)CSCC(=O)Nc2cccc3ncccc23)cc1,16.4%
16,CCOC(=O)Cn1nc(-c2ccc(F)cc2)cc(Cc2ccccc2)c1=O,-12.2%
17,COc1cc2c(cc1OC)CN(C(=O)CNS(=O)(=O)c1ccc(C)c(C)c1)CC2,6.84%
18,COc1ccc(Cc2nc3ccc(C(=O)N(C)Cc4nccs4)cc3o2)cc1OC,15.3%
19,O=C(Cn1cc2c(n1)CCCC2)N1CCCC1,5.98%
20,CCCCCC(=O)Nc1ccc(C(=O)COC(=O)c2ccccn2)cc1,10.5%
21,Cc1ccc(S(=O)(=O)N2CCN(C(=O)CN3CCOCC3)C2c2ccccc2)cc1 (stereo not drawn),4.55%
